# Reference: the supplement of paper PMC4604168 (melanoma cell lines)
# The list shows a part of the results. Most values come without repeats; read them as rough.
# System: SkMel2
# Assay: cell count relative to DMSO control; melanoma cells; higher = more viable cells
# Conditions: library dose: standard library concentration; 72 h; first compound 2 µM
# 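Also: cells treated in 1,536-well plates, then fixed and DAPI-stained, with nuclei counted from automated high-throughput microscope images.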
row,SMILES,cell count
1,C[C@@H](N)c1ccc(C(=O)Nc2ccnc3[nH]ccc23)cc1 + CO[C@@H]1[C@H](N(C)C(=O)c2ccccc2)C[C@H]2O[C@]1(C)n1c3ccccc3c3c4c(c5c6ccccc6n2c5c31)C(=O)NC4 [Midostaurin] (partner dose 0.4 µM),69.7%
2,Cn1sc(=O)n(Cc2ccccc2)c1=O + Nc1cccc2c1CN(C1CCC(=O)NC1=O)C2=O [lenalidomide] (partner dose 5 µM),88.4%
3,Cn1sc(=O)n(Cc2ccccc2)c1=O + COc1cc2c(Oc3ccc4[nH]c(C)cc4c3F)ncnc2cc1OCCCN1CCCC1 [cediranib] (partner dose 2 µM),91.7%
4,C[C@@H](N)c1ccc(C(=O)Nc2ccnc3[nH]ccc23)cc1 + Cn1sc(=O)n(Cc2ccccc2)c1=O [TDZD-8] (partner dose 2 µM),78.6%
5,C[C@@H](N)c1ccc(C(=O)Nc2ccnc3[nH]ccc23)cc1 + CC(C)C[C@H](NC(=O)[C@H](Cc1ccccc1)NC(=O)c1cnccn1)B(O)O [Bortezomib] (partner dose 0.005 µM),26.7%
6,CCCCCCCCCCCCCCCCCCOP(=O)([O-])OC1CC[N+](C)(C)CC1 [Perifosine] + C#Cc1cccc(Nc2ncnc3cc(OCCOC)c(OCCOC)cc23)c1 [erlotinib] (partner dose 4 µM),78.1%
7,Cn1sc(=O)n(Cc2ccccc2)c1=O + CNC(=O)c1cc(Oc2ccc(NC(=O)Nc3ccc(Cl)c(C(F)(F)F)c3)cc2)ccn1 [sorafenib] (partner dose 2 µM),86.2%
8,CCCCCCCCCCCCCCCCCCOP(=O)([O-])OC1CC[N+](C)(C)CC1 [Perifosine] + C[C@]1(c2nc3c(C(N)=O)cccc3[nH]2)CCCN1 [Veliparib] (partner dose 7 µM),87.7%
9,Cn1sc(=O)n(Cc2ccccc2)c1=O + Cc1cc(Nc2cc(N3CCN(C)CC3)nc(/C=C/c3ccccc3)n2)n[nH]1 [ENMD2076] (partner dose 0.2 µM),95.3%
10,CCCCCCCCCCCCCCCCCCOP(=O)([O-])OC1CC[N+](C)(C)CC1 [Perifosine] + COc1ccc(C2=N[C@@H](c3ccc(Cl)cc3)[C@@H](c3ccc(Cl)cc3)N2C(=O)N2CCNC(=O)C2)c(OC(C)C)c1 [Nutlin-3] (partner dose 0.5 µM),102%
11,Cn1sc(=O)n(Cc2ccccc2)c1=O + Cn1c(=O)n(-c2ccc(C(C)(C)C#N)cc2)c2c3cc(-c4cnc5ccccc5c4)ccc3ncc21 [NVP-BEZ235] (partner dose 0.02 µM),65.1%
12,C[C@@H](N)c1ccc(C(=O)Nc2ccnc3[nH]ccc23)cc1 + Nc1nc(F)nc2c1ncn2[C@@H]1O[C@H](CO)[C@@H](O)[C@@H]1O [fludarabine] (partner dose 1 µM),0.493%
13,C[C@@H](N)c1ccc(C(=O)Nc2ccnc3[nH]ccc23)cc1 + O=C(Nc1cccc(Cl)c1)Nc1ncc(CCNc2ncnc3ccsc23)s1 [SNS314] (partner dose 0.004 µM),83.6%
14,Cn1sc(=O)n(Cc2ccccc2)c1=O + O=C(O)c1ccc2c(c1)nc(Nc1cccc(Cl)c1)c1ccncc12 [CX4945] (partner dose 2 µM),76.7%
15,Cn1sc(=O)n(Cc2ccccc2)c1=O + COc1ccc(Cl)c(Nc2nc3ccccc3nc2NS(=O)(=O)c2cccc(NC(=O)C(C)(C)N)c2)c1 [XL147] (partner dose 4 µM),114%
16,CCCCCCCCCCCCCCCCCCOP(=O)([O-])OC1CC[N+](C)(C)CC1 [Perifosine] + Cn1nnc2c(C(N)=O)ncn2c1=O [temozolomide] (partner dose 10 µM),111%
17,CCCCCCCCCCCCCCCCCCOP(=O)([O-])OC1CC[N+](C)(C)CC1 [Perifosine] + Clc1ccc(Nc2nnc(Cc3ccncc3)c3ccccc23)cc1 [vatalanib] (partner dose 10 µM),86.9%
18,C[C@@H](N)c1ccc(C(=O)Nc2ccnc3[nH]ccc23)cc1 + COc1cc(Nc2ncc(F)c(Nc3ccc4c(n3)NC(=O)C(C)(C)O4)n2)cc(OC)c1OC [Tamatinib] (partner dose 2 µM),64.5%
19,C[C@@H](N)c1ccc(C(=O)Nc2ccnc3[nH]ccc23)cc1 + COc1cc2c(Oc3ccc4[nH]c(C)cc4c3F)ncnc2cc1OCCCN1CCCC1 [cediranib] (partner dose 2 µM),115%
20,C[C@@H](N)c1ccc(C(=O)Nc2ccnc3[nH]ccc23)cc1 + CCCCCCCCc1ccc(CCC(N)(CO)CO)cc1 [fingolimod] (partner dose 10 µM),0.217%

row,SMILES,cell count
1,Cn1sc(=O)n(Cc2ccccc2)c1=O + C[C@]1(O)C[C@@H](c2nc(-c3ccc4ccc(-c5ccccc5)nc4c3)c3c(N)nccn32)C1 [OSI906] (partner dose 2 µM),88%
2,Cn1sc(=O)n(Cc2ccccc2)c1=O + NC(=O)c1ccc(N(C(N)=O)c2c(F)cccc2F)nc1-c1ccc(F)cc1F [VX702] (partner dose 2 µM),87.8%
3,C[C@@H](N)c1ccc(C(=O)Nc2ccnc3[nH]ccc23)cc1 + Cn1cnc2c(F)c(Nc3ccc(Br)cc3Cl)c(C(=O)NOCCO)cc21 [selumetinib] (partner dose 0.075 µM),55.3%
4,CCCCCCCCCCCCCCCCCCOP(=O)([O-])OC1CC[N+](C)(C)CC1 [Perifosine] + CC(C)C[C@H](NC(=O)[C@H](Cc1ccccc1)NC(=O)c1cnccn1)B(O)O [Bortezomib] (partner dose 0.005 µM),33.5%
5,C[C@@H](N)c1ccc(C(=O)Nc2ccnc3[nH]ccc23)cc1 + CNC(=O)c1cc(Oc2ccc(NC(=O)Nc3ccc(Cl)c(C(F)(F)F)c3)cc2)ccn1 [sorafenib] (partner dose 2 µM),87.6%
6,CCCCCCCCCCCCCCCCCCOP(=O)([O-])OC1CC[N+](C)(C)CC1 [Perifosine] + C[C@]1(O)C[C@@H](c2nc(-c3ccc4ccc(-c5ccccc5)nc4c3)c3c(N)nccn32)C1 [OSI906] (partner dose 2 µM),74.6%
7,CCCCCCCCCCCCCCCCCCOP(=O)([O-])OC1CC[N+](C)(C)CC1 [Perifosine] + NC1(c2ccc(-c3nc4ccn5c(=O)[nH]nc5c4cc3-c3ccccc3)cc2)CCC1 [MK2206] (partner dose 2 µM),76.2%
8,CCCCCCCCCCCCCCCCCCOP(=O)([O-])OC1CC[N+](C)(C)CC1 [Perifosine] + O=c1[nH]nc(Sc2ncc([N+](=O)[O-])s2)n1-c1ccc2c(c1)OCCO2 [BI78D3] (partner dose 1 µM),110%
9,C[C@@H](N)c1ccc(C(=O)Nc2ccnc3[nH]ccc23)cc1 + NC1(c2ccc(-c3nc4ccn5c(=O)[nH]nc5c4cc3-c3ccccc3)cc2)CCC1 [MK2206] (partner dose 2 µM),95.5%
10,CCCCCCCCCCCCCCCCCCOP(=O)([O-])OC1CC[N+](C)(C)CC1 [Perifosine] + Cc1cn(-c2cc(NC(=O)c3ccc(C)c(Nc4nccc(-c5cccnc5)n4)c3)cc(C(F)(F)F)c2)cn1 [nilotinib] (partner dose 1 µM),110%
11,Cn1sc(=O)n(Cc2ccccc2)c1=O + CN(c1ncccc1CNc1nc(Nc2ccc3c(c2)CC(=O)N3)ncc1C(F)(F)F)S(C)(=O)=O [PF562271] (partner dose 0.4 µM),86.5%
12,C[C@@H](N)c1ccc(C(=O)Nc2ccnc3[nH]ccc23)cc1 + C=C(c1ccc(C(=O)O)cc1)c1cc2c(cc1C)C(C)(C)CCC2(C)C [Bexarotene] (partner dose 10 µM),85.8%
13,CCCCCCCCCCCCCCCCCCOP(=O)([O-])OC1CC[N+](C)(C)CC1 [Perifosine] + Cc1cc(Nc2cc(N3CCN(C)CC3)nc(/C=C/c3ccccc3)n2)n[nH]1 [ENMD2076] (partner dose 0.2 µM),99.9%
14,C[C@@H](N)c1ccc(C(=O)Nc2ccnc3[nH]ccc23)cc1 + CN(NC(=O)CC(=O)NN(C)C(=S)c1ccccc1)C(=S)c1ccccc1 [STA4783] (partner dose 0.03 µM),43.6%
15,Cn1sc(=O)n(Cc2ccccc2)c1=O + COc1cc(Nc2ncc(F)c(Nc3ccc4c(n3)NC(=O)C(C)(C)O4)n2)cc(OC)c1OC [Tamatinib] (partner dose 2 µM),88.9%
16,CCCCCCCCCCCCCCCCCCOP(=O)([O-])OC1CC[N+](C)(C)CC1 [Perifosine] + OCc1c[nH]c2ccccc12 [Indole-3-carbinol] (partner dose 4 µM),93.8%
17,C[C@@H](N)c1ccc(C(=O)Nc2ccnc3[nH]ccc23)cc1 + CS(=O)(=O)CCNCc1ccc(-c2ccc3ncnc(Nc4ccc(OCc5cccc(F)c5)c(Cl)c4)c3c2)o1 [lapatinib] (partner dose 4 µM),86%
18,Cn1sc(=O)n(Cc2ccccc2)c1=O + O=C(O)c1ccc(-c2c[nH]c3ncc(-c4ccccc4)cc23)cc1C1CCCC1 [GSK650394] (partner dose 0.8 µM),79.5%
19,Cn1sc(=O)n(Cc2ccccc2)c1=O + Cn1nnc2c(C(N)=O)ncn2c1=O [temozolomide] (partner dose 10 µM),109%
